Experimental data: the supplement of paper PMC10126150
Values marked as one replicate rest on one cluster of the flow cell; about a third of the high ones do not repeat.

system: ATP; test: switch fluorescence ratio, 500 uM ATP over buffer (Cy3 cluster intensity, sum of 5 cycles each) (fold (ratio)); higher = stronger signal-on switching upon ATP binding; sequences stand for … in TCGTCGGCAGCGTCAGATGTGTATAAGAGACAGTTTTTTTTTTTTTTTTTTTTTTTTT…TC; settings: aptamer strand: ATP DNA aptamer (quencher-CACCTGGGGGAGTATTGCGGAGGAAGG + anchor), 100 nM annealed; ATP concentration: 500 uM; one replicate
In short: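 Clusters with intensities outside 100-1000 RFU were excluded. The remaining Cy3-labelled switching-strand clusters on a modified Illumina MiSeq flow-cell had been annealed to 100 nM quencher-labelled ATP aptamer and imaged in selection buffer, then after 15 min with 500 uM ATP at 22 °C, for five cycles separated by NaOH stripping and re-annealing. The fluorescence ratio, averaged per switch-domain sequence, is each cluster's summed target-cycle Cy3 intensity over its summed buffer-cycle Cy3 intensity.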
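Also: ATP exposure 15 min at 22 °C before imaging.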

| Sequence | switch fluorescence ratio |
| --- | --- |
| ACAGTGTAAG | 1.05 |
| ACAGTTTGTG | 1.01 |
| ACAGTTTGTT | 1.01 |
| ACATAAGTTC | 0.982 |
| ACATACAGAC | 1.3 |
| ACATACGTGC | 1.32 |
| ACATATATTT | 1.03 |
| ACATATCTGA | 0.993 |
| ACATATGTGC | 0.988 |
| ACATATTCTA | 1.04 |
| ACATCAATCG | 1.08 |
| ACATCGTACC | 1.05 |
| ACATCTTGGT | 1.02 |
| ACATGAGAGC | 1 |
| ACATGATAAG | 1.02 |
| ACATGATTA | 0.985 |
| ACATGCATTG | 1.03 |
| ACATGCGCTT | 1.04 |
| ACATGGATGG | 1 |
| ACATGGTTGG | 0.95 |
| ACATGTACCT | 1.33 |
| ACATGTATAA | 1.03 |
| ACATGTCATC | 1.01 |
| ACATGTCGAA | 0.995 |
| ACATGTTATC | 0.991 |

| Sequence | switch fluorescence ratio |
| --- | --- |
| ACATTAAAGG | 0.999 |
| ACATTACGAT | 1.35 |
| ACATTAGCGA | 0.762 |
| ACATTCTGGG | 1.01 |
| ACATTCTT | 1.01 |
| ACATTGACAA | 1.05 |
| ACATTGGTGC | 1.12 |
| ACATTGTCTG | 0.928 |
| ACATTGTGCA | 0.991 |
| ACATTTCCG | 1.06 |
| ACATTTGCCT | 1.03 |
| ACCAAAATT | 1.04 |
| ACCAAAGTTT | 0.977 |
| ACCAACGGAG | 1.24 |
| ACCACAGGCA | 1.05 |
| ACCACAGGCG | 2.37 |
| ACCACGTGAT | 1.08 |
| ACCACTAGGT | 1.04 |
| ACCACTTCCA | 1.1 |
| ACCACTTCCT | 1.55 |
| ACCAGAATTG | 1 |
| ACCAGACAGG | 1.04 |
| ACCAGACGAG | 1.02 |
| ACCAGAGCCC | 1.03 |
| ACCAGAGCCG | 1.31 |

| Sequence | switch fluorescence ratio |
| --- | --- |
| ACCAGATTAC | 1.06 |
| ACCAGCGATA | 3.32 |
| ACCAGGTAA | 1.01 |
| ACCATATGAG | 1.04 |
| ACCATCGCCA | 1.07 |
| ACCATCTTGG | 0.98 |
| ACCATGCAGC | 1.05 |
| ACCATGGAAT | 1.01 |
| ACCATGTTCT | 0.96 |
| ACCATTTTGA | 1.01 |
| ACCCAACCAG | 1.15 |
| ACCCAAGGTT | 1.1 |
| ACCCAGCCTG | 1.04 |
| ACCCAGGAAC | 1.11 |
| ACCCATAAGG | 1.01 |
| ACCCATTGCC | 0.961 |
| ACCCCCAGTA | 1.08 |
| ACCCCGGGG | 0.994 |
| ACCCCTAGTC | 1.09 |
| ACCCGAAGGA | 0.984 |
| ACCCGCATGT | 3.44 |
| ACCCGGAGAA | 1.09 |
| ACCCGTGCAT | 1.04 |
| ACCCGTGTAT | 1.03 |
| ACCCTGGTTT | 1.06 |

| Sequence | switch fluorescence ratio |
| --- | --- |
| ACCCTGTGGG | 0.974 |
| ACCCTGTTTT | 0.912 |
| ACCCTTTGAC | 1.06 |
| ACCCTTTGTA | 0.997 |
| ACCGAAATCG | 1.05 |
| ACCGAAGTCC | 1.38 |
| ACCGAGCGGA | 1.12 |
| ACCGATAAGC | 1.14 |
| ACCGATCCTG | 1.08 |
| ACCGATGCTC | 2.23 |
| ACCGCGAATG | 1.31 |
| ACCGCGCCGT | 1.09 |
| ACCGCGCTAT | 1.52 |
| ACCGGCAATG | 1.26 |
| ACCGGCCGAG | 0.997 |
| ACCGGCGAAT | 1.04 |
| ACCGGCTTTA | 1 |
| ACCGGGCAAC | 1.15 |
| ACCGGTAGCA | 1.07 |
| ACCGTCGCCG | 1.02 |
| ACCGTGCATT | 1.04 |
| ACCGTGCTGG | 1.01 |
| ACCGTGGTAA | 0.962 |
| ACCGTGTTGA | 1.05 |
| ACCGTTGTCA | 0.982 |

| Sequence | switch fluorescence ratio |
| --- | --- |
| ACCGTTTGTC | 1.03 |
| ACCTAATGCA | 1.07 |
| ACCTACATAT | 1.22 |
| ACCTAGGCCA | 1.03 |
| ACCTATAGCC | 1.04 |
| ACCTCCTCTA | 1.95 |
| ACCTCCTGGT | 0.993 |
| ACCTCGCTAA | 1.78 |
| ACCTCGCTC | 1.5 |
| ACCTGAATGC | 1.11 |
| ACCTGATTTT | 0.997 |
| ACCTGCATCA | 1.15 |
| ACCTGCTAAT | 1.06 |
| ACCTGCTTGG | 1.02 |
| ACCTGGGGGC | 1.02 |
| ACCTGGTTAG | 0.993 |
| ACCTGTCGGA | 1.04 |
| ACCTGTGGGT | 0.968 |
| ACCTTACATC | 1.28 |
| ACCTTACGAT | 1.62 |
| ACCTTAGTTC | 1.03 |
| ACCTTCAGTT | 1.05 |
| ACCTTCGGCT | 1.16 |
| ACCTTCTAAT | 1.14 |
| ACCTTGGCGG | 1.02 |

| Sequence | switch fluorescence ratio |
| --- | --- |
| ACCTTTTGGG | 1.09 |
| ACGAAAGAAG | 1.02 |
| ACGAAGATAT | 1.04 |
| ACGAATGTTA | 0.992 |
| ACGACAGAGT | 1.05 |
| ACGACCGGCC | 1.72 |
| ACGACCTCGT | 1.02 |
| ACGACGGGTG | 1.36 |
| ACGACGGTTT | 1.01 |
| ACGACTACTT | 1.2 |
| ACGAGCGAC | 1.83 |
| ACGAGGAAGG | 0.99 |
| ACGAGGAGGG | 1.01 |
| ACGAGGGCGA | 1.05 |
| ACGAGGGGTT | 0.993 |
| ACGAGGTGTA | 1.07 |
| ACGATAAATT | 1.09 |
| ACGATATTGG | 1.16 |
| ACGATGCTTT | 1.12 |
| ACGATGGATC | 1.08 |
| ACGATTACAC | 1.33 |
| ACGATTACGC | 1.19 |
| ACGATTAGA | 1.02 |
| ACGATTCGCC | 1.06 |
| ACGCAATTAG | 7 |

| Sequence | switch fluorescence ratio |
| --- | --- |
| ACGCACAATG | 1.33 |
| ACGCACAGGA | 1.24 |
| ACGCAGAAAT | 1.81 |
| ACGCATTAGT | 1.36 |
| ACGCATTCGG | 1.18 |
| ACGCATTGTG | 1.02 |
| ACGCCATCGA | 1.11 |
| ACGCCCGCCG | 1.06 |
| ACGCCCGTA | 1.06 |
| ACGCCGGAGG | 0.987 |
| ACGCCTCCTG | 1.21 |
| ACGCCTGCGT | 1.01 |
| ACGCGAAGTA | 1.02 |
| ACGCGCATGG | 0.978 |
| ACGCGCCTGC | 1.11 |
| ACGCGGATGT | 1.06 |
| ACGCGTAGAA | 1.01 |
| ACGCGTGAGT | 1.04 |
| ACGCTATGAT | 1.2 |
| ACGCTATGTT | 1.14 |
| ACGCTCACAC | 1.6 |
| ACGCTCTAC | 3.71 |
| ACGCTGCAAC | 3.35 |
| ACGCTTACTG | 1.46 |
| ACGCTTATTG | 1.06 |

| Sequence | switch fluorescence ratio |
| --- | --- |
| ACGCTTCAAT | 1.1 |
| ACGCTTTCTC | 1.77 |
| ACGGAAAATA | 1.03 |
| ACGGACATGT | 1.04 |
| ACGGACGGGT | 2.67 |
| ACGGACGTCT | 0.996 |
| ACGGACTCTG | 1.04 |
| ACGGAGGGAC | 1.05 |
| ACGGAGGTTA | 1.02 |
| ACGGATCGTC | 0.961 |
| ACGGCAAATA | 1.2 |
| ACGGCAGAGC | 0.999 |
| ACGGCATAGG | 1.07 |
| ACGGCGAGGA | 1.07 |
| ACGGCTGGGT | 0.997 |
| ACGGGACCTG | 1.08 |
| ACGGGCATCC | 0.983 |
| ACGGGGCTCC | 1 |
| ACGGGGTACA | 1.08 |
| ACGGGTACTG | 0.99 |
| ACGGGTAGCT | 1.02 |
| ACGGGTATGC | 1.02 |
| ACGGGTGTA | 1.02 |
| ACGGTATTGT | 1.13 |
| ACGGTCCGCT | 1.13 |
